# In PubChem BioAssay AID1345082 (National Center for Advancing Translational Sciences (NCATS), 2018):
# Out of some 94,000 compounds screened, about 4,000 (4.3%) were called active. This list was built around the results that the source calls inconclusive (neither active nor inactive); the mix of calls is not that of the screen. Calls come from the whole dose curve; as a rule, active = well fitted inhibition curve with a large enough effect; inconclusive = small, poorly fitted or top-dose-only effect; inactive = no such curve, though single readings can be large or run the other way. A potency beside an inconclusive call is a rough fit, not a confirmed value.
# Experiment: Cytotoxic Profiling in NIH 3T3 Cell Line of Diverse Libraries Using Quantitative High-Throughput Screening; note: nearly all actives have a fitted effect of over 55% in size
# Details: NIH 3T3 viability, CellTiter-Glo ATP luminescence, 48-72 h; activity change, negative = cytotoxicity: at 96.7 µM (top of the series); series mostly up to 96.7 µM
# Outline: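 ATP-dependent luminescence (CellTiter-Glo) served as the viability signal for NIH 3T3 cells treated with compound for 48 or 72 hr at 37 °C.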
# % is set by controls: 0 for no effect and ±100 for the full control effect; potency is the fitted concentration of half-maximal effect; tags give direction and shape of the fitted curve.
SMILES,Potency,"activity change, negative = cytotoxicity",outcome
O=C(Cc1cccs1)N1CCC(Oc2ccccc2)C1 (centres undefined),"inconclusive: 35.5 µM [inhibitor, partial curve]",,
CC(C)c1noc(-c2cn(C3CCCN(C(=O)c4cccc5[nH]ccc45)C3)nn2)n1 (centres undefined),"inconclusive: 44.7 µM [inhibitor, partial curve, poor fit]",,
Cc1cc2c(-c3cccnc3)nc(-c3c(C)noc3C)cc2[nH]1,"inconclusive: 31.6 µM [inhibitor, full curve]",,
CCNC(=O)N[C@@H]1C=C[C@@H](c2c(C)nn(-c3ccc(F)cc3)c2C)C1,"inconclusive: 56.2 µM [inhibitor, partial curve, poor fit]",,
Cn1nc(-c2ccncc2)cc1NC(=O)c1ccc(Cl)cc1,"inconclusive: 28.2 µM [inhibitor, full curve]",,
O=C(NCCCc1ccccc1F)[C@@]12CNC[C@@H]1CN(Cc1ccccc1)C2,active: 28.2 µM,,
CN1CCC(N2CC[C@H](c3nc4ccccc4[nH]3)C2)CC1,,inactive: -22.3% [at 230 µM],
CCc1nc(CN(C)C(=O)C2CCCN2C(=O)C2CCCCC2)no1 (centres undefined),,inactive: -5.75%,
Cc1ccc(O[C@H]2CCOC[C@H]2NC(=O)C2CCS(=O)(=O)CC2)cn1,,inactive: -17%,
Cc1nncn1C1CCN(S(=O)(=O)c2cccc(Br)c2)CC1,,inactive: -5.56%,
CCCC(NC(=O)c1ccc(C#N)cc1)c1ccccc1 (centres undefined),,inactive: -30.2%,
CN1C(=O)C2(CCN(C(=O)c3ccc(Cl)cc3)C2)c2ccccc21 (centres undefined),"inconclusive: 79.4 µM [inhibitor, partial curve, poor fit]",,
COc1ccc(N2CCN(c3nc(C(=O)N4CCC(C)CC4)cs3)CC2)cc1,active: 39.8 µM,,
CN1CCC(Cn2ccc3c(N4CCOCC4)nc(-c4ccc5cn[nH]c5c4)cc32)CC1,active: 39.8 µM,,
Cc1ccc(S(=O)(=O)N2c3ccccc3CC2c2nnc(C3CCOCC3)o2)cc1F (centres undefined),"inconclusive: 70.8 µM [inhibitor, partial curve, poor fit]",,
O=C(CCn1ccn2nc3c(c2c1=O)CCCC3)Nc1cc(F)cc(F)c1,"inconclusive: 44.7 µM [inhibitor, partial curve, poor fit]",,
CNC(C)c1cccc(OC)c1 (centres undefined),,,inactive [at 174 µM]
CCC(=O)NC1CCN(c2ccnc3ccnn23)CC1,,,inactive [at 138 µM]
C[S+](=O)([O-])N1C[C@H](C(=O)N2CCN(c3ccccn3)CC2)C[C@@H]1c1ccc(F)cc1,"inconclusive: 56.2 µM [inhibitor, partial curve, poor fit]",,
C[C@H]1CN(C(=O)CCCc2ccccc2)C[C@@H]1c1nc(-c2ccccc2)no1,"inconclusive: 70.8 µM [inhibitor, single point]",,
COc1c(F)ccc(C(=O)NC2CC(=O)N(CCc3ccc(F)cc3)C2)c1F (centres undefined),,inactive: -22.2%,
CCn1cc(CN2CCc3nc(N4CCN(C)CC4)[nH]c(=O)c3CC2)c2ccccc21,,,inactive

SMILES,Potency,"activity change, negative = cytotoxicity",outcome
Cn1cnc(C(=O)NC2CCN(C(=O)N3CC4CC(C3)[C@H]3CCCC(=O)N3C4)CC2)c1 (some centres undefined),,inactive: -23.7%,
Fc1ccc(-c2cnc3n[nH]c(-c4ccc5c(c4)OCO5)c3n2)cc1,"inconclusive: 89.1 µM [inhibitor, partial curve, poor fit]",,
OCC1(CC2CC2)CCCN(c2nccc(C(F)(F)F)n2)C1 (centres undefined),"inconclusive: 70.8 µM [inhibitor, single point]",,
O=C(NCCc1ccccc1F)c1ccc2nnc(-c3ccoc3)n2c1,"inconclusive: 100 µM [inhibitor, single point]",,
CN1CC(=O)N(C2CNC2)Cc2c(NC3CC3)ncnc21,,,inactive [at 138 µM]
CSCc1nc(-c2ccncc2)nn1Cc1ccc2c(c1)OCO2,"inconclusive: 44.7 µM [inhibitor, partial curve, poor fit]",,
COc1ccccc1N1CCN(C2CCCN(C3CCN(Cc4ccccc4)CC3)C2)CC1 (centres undefined),"inconclusive: 56.2 µM [inhibitor, partial curve, poor fit]",,
COc1ccc(-c2nc(C)nc3c2CN(C(=O)c2cccc(Cl)c2)CC3)cc1,"inconclusive: 56.2 µM [inhibitor, partial curve, poor fit]",,
Cn1c(C(=O)N2CCC(N3CCCCC3)CC2)cc2c1CCN(Cc1cccc(F)c1)C2,"inconclusive: 70.8 µM [inhibitor, single point]",,
O=C(CCn1cnnn1)N1CCCC(CCc2cccc(C(F)(F)F)c2)C1 (centres undefined),"inconclusive: 25.1 µM [inhibitor, partial curve, poor fit]",,
COC(=O)C1=C(C)N=C2SC=C(CC(=O)NCc3ccccc3)N2C1c1cccc(F)c1 (centres undefined),"inconclusive: 44.7 µM [inhibitor, partial curve, poor fit]",,
COC(=O)CNC(=O)C1CCCN(Cc2cccc(-c3cccs3)c2)C1 (centres undefined),"inconclusive: 44.7 µM [inhibitor, partial curve, poor fit]",,
C#CCNC(=O)c1cc(-c2ccccc2OC)c2cnn(C)c2n1,,inactive: -25%,
Cn1cc(-c2cnc(NC(=O)c3c[nH]c4ccccc34)c3c2CCO3)cn1,"inconclusive: 89.1 µM [inhibitor, partial curve, poor fit]",,
CC(=O)Nc1ccccc1-c1nccc2c(=O)cc(N(C)c3ccccc3)oc12,"inconclusive: 89.1 µM [inhibitor, partial curve, poor fit]",,
COc1ccc(-c2noc([C@@H](C)NCC3CCCC3)c2C(=O)O)cc1,,inactive: 1.5% [at 138 µM],
O=C([C@H]1CCCN1C(=O)c1ccccc1)N1CCC(N2CCOC2=O)CC1,,inactive: 3.39%,
CC1(C)C(=O)N(CCOc2ccccc2)[C@H]2CN(CC3CCOC3)C[C@H]2[S+]1(=O)[O-] (some centres undefined),"inconclusive: 56.2 µM [inhibitor, partial curve, poor fit]",,
CCc1cn(C[C@H](NCCC(C)C)C(=O)O)c(=O)[nH]c1=O,,,inactive [at 138 µM]
COc1ccc(-n2nc(C)c([C@@H]3C=C[C@@H](NCc4ccccc4)C3)c2C)cc1,"inconclusive: 50.1 µM [inhibitor, partial curve, poor fit]",,
CCn1cc(S(=O)(=O)N2CCCC(Cc3ncc(C)n3CC3CC3)C2)cn1 (centres undefined),,inactive: -20.5%,
Cc1ncccc1-c1nc2cc(C(=O)N(C)C)ccc2o1,"inconclusive: 89.1 µM [inhibitor, single point]",,
